Source: publication PMC4468608, “A distinct p53 target gene set predicts for response to the selective p53–HDM2 inhibitor NVP-CGM097” (eLife, 2015)
This continues a long series; more values of the same kind are listed elsewhere.

Test system: cell lines from the Cancer Cell Line Encyclopedia (CCLE)
Assay: High-throughput cell viability assay, CCLE cell line panel (n = 356)
Assay type: cell-based, human
Description: Cell lines were partitioned into sensitive and insensitive groups based on compound potency (IC50). […] All other cell lines were obtained from ATCC (American Type Culture Collection), DSMZ (Deutsche Sammlung von Mikroorganismen und Zellkulturen), and HSRRB (Health Science Research Resources Bank) and cultured in RPMI or Dulbecco's modified Eagle's medium plus 10% FBS (Invitrogen, Carlsbad, CA) at 37°C, 5% CO2.

## COc1cc2c(cc1OC(C)C)[C@H](c1ccc(Cl)cc1)N(c1ccc(N(C)C[C@H]3CC[C@H](N4CCNC(=O)C4)CC3)cc1)C(=O)C2 [NVP-CFC218]
HCC70, TP53 MUT
  sensitivity call: insensitive (Sensitivity call for each compound was applied according to a cut-off of 4 µM for IC50 and -50% for Amax)
HCC1500, TP53 WT
  Amax: -63.62%
  sensitivity call: insensitive (Sensitivity call for each compound was applied according to a cut-off of 4 µM for IC50 and -50% for Amax)
HCC4006, TP53 MUT
  Amax: -3.10%
  sensitivity call: insensitive (Sensitivity call for each compound was applied according to a cut-off of 4 µM for IC50 and -50% for Amax)
HCC-56, TP53 MUT
  Amax: 8.24%
  sensitivity call: insensitive (Sensitivity call for each compound was applied according to a cut-off of 4 µM for IC50 and -50% for Amax)
HCC-78, TP53 MUT
  Amax: 0.79%
  sensitivity call: insensitive (Sensitivity call for each compound was applied according to a cut-off of 4 µM for IC50 and -50% for Amax)
HCT 116, TP53 WT
  Amax: -66.04%
  sensitivity call: sensitive (Sensitivity call for each compound was applied according to a cut-off of 4 µM for IC50 and -50% for Amax)
HD-MY-Z, TP53 MUT
  Amax: -21.14%
  sensitivity call: insensitive (Sensitivity call for each compound was applied according to a cut-off of 4 µM for IC50 and -50% for Amax)
HEC-50B, TP53 MUT
  Amax: -23.10%
  sensitivity call: insensitive (Sensitivity call for each compound was applied according to a cut-off of 4 µM for IC50 and -50% for Amax)
HEC-59, TP53 MUT
  Amax: -1.34%
  sensitivity call: insensitive (Sensitivity call for each compound was applied according to a cut-off of 4 µM for IC50 and -50% for Amax)
HEC-151, TP53 MUT
  Amax: -52.18%
  sensitivity call: insensitive (Sensitivity call for each compound was applied according to a cut-off of 4 µM for IC50 and -50% for Amax)
HEL 92.1.7, TP53 MUT
  Amax: 5.00%
  sensitivity call: insensitive (Sensitivity call for each compound was applied according to a cut-off of 4 µM for IC50 and -50% for Amax)
HGC-27, TP53 MUT
  Amax: -52.41%
  sensitivity call: insensitive (Sensitivity call for each compound was applied according to a cut-off of 4 µM for IC50 and -50% for Amax)
HH, TP53 MUT
  Amax: 14.86%
  sensitivity call: insensitive (Sensitivity call for each compound was applied according to a cut-off of 4 µM for IC50 and -50% for Amax)
HPB-ALL, TP53 MUT
  Amax: -2.06%
  sensitivity call: insensitive (Sensitivity call for each compound was applied according to a cut-off of 4 µM for IC50 and -50% for Amax)
HSC-3, TP53 MUT
  Amax: -2.32%
  sensitivity call: insensitive (Sensitivity call for each compound was applied according to a cut-off of 4 µM for IC50 and -50% for Amax)
HSC-4, TP53 MUT
  Amax: -2.11%
  sensitivity call: insensitive (Sensitivity call for each compound was applied according to a cut-off of 4 µM for IC50 and -50% for Amax)
HT-29, TP53 MUT
  Amax: -14.05%
  sensitivity call: insensitive (Sensitivity call for each compound was applied according to a cut-off of 4 µM for IC50 and -50% for Amax)
HT-144, TP53 WT
  Amax: -69.73%
  sensitivity call: sensitive (Sensitivity call for each compound was applied according to a cut-off of 4 µM for IC50 and -50% for Amax)
Hey-A8, TP53 WT
  Amax: -59.27%
  sensitivity call: sensitive (Sensitivity call for each compound was applied according to a cut-off of 4 µM for IC50 and -50% for Amax)
Hs 294T, TP53 MUT
  Amax: -63.14%
  sensitivity call: sensitive (Sensitivity call for each compound was applied according to a cut-off of 4 µM for IC50 and -50% for Amax)
Hs 578T, TP53 MUT
  Amax: 12.21%
  sensitivity call: insensitive (Sensitivity call for each compound was applied according to a cut-off of 4 µM for IC50 and -50% for Amax)
Hs 683, TP53 MUT
  Amax: 3.20%
  sensitivity call: insensitive (Sensitivity call for each compound was applied according to a cut-off of 4 µM for IC50 and -50% for Amax)
Hs 695T, TP53 WT
  Amax: -62.89%
  sensitivity call: sensitive (Sensitivity call for each compound was applied according to a cut-off of 4 µM for IC50 and -50% for Amax)
Hs 746T, TP53 MUT
  Amax: 0.34%
  sensitivity call: insensitive (Sensitivity call for each compound was applied according to a cut-off of 4 µM for IC50 and -50% for Amax)
Hs 766T, TP53 MUT
  Amax: -25.13%
  sensitivity call: insensitive (Sensitivity call for each compound was applied according to a cut-off of 4 µM for IC50 and -50% for Amax)
Hs 936.T, TP53 WT
  Amax: -53.45%
  sensitivity call: insensitive (Sensitivity call for each compound was applied according to a cut-off of 4 µM for IC50 and -50% for Amax)
HuCCT1, TP53 MUT
  Amax: -1.97%
  sensitivity call: insensitive (Sensitivity call for each compound was applied according to a cut-off of 4 µM for IC50 and -50% for Amax)
HuH-7, TP53 MUT
  Amax: -15.66%
  sensitivity call: insensitive (Sensitivity call for each compound was applied according to a cut-off of 4 µM for IC50 and -50% for Amax)
HuT 78, TP53 MUT
  Amax: 3.50%
  sensitivity call: insensitive (Sensitivity call for each compound was applied according to a cut-off of 4 µM for IC50 and -50% for Amax)
IA-LM, TP53 MUT
  Amax: 1.08%
  sensitivity call: insensitive (Sensitivity call for each compound was applied according to a cut-off of 4 µM for IC50 and -50% for Amax)
IGR-39, TP53 MUT
  Amax: -19.40%
  sensitivity call: insensitive (Sensitivity call for each compound was applied according to a cut-off of 4 µM for IC50 and -50% for Amax)
IPC-298, TP53 MUT
  Amax: -6.63%
  sensitivity call: insensitive (Sensitivity call for each compound was applied according to a cut-off of 4 µM for IC50 and -50% for Amax)
IST-MES2, TP53 MUT
  Amax: -3.22%
  sensitivity call: insensitive (Sensitivity call for each compound was applied according to a cut-off of 4 µM for IC50 and -50% for Amax)
JHH-4, TP53 MUT
  Amax: -22.81%
  sensitivity call: insensitive (Sensitivity call for each compound was applied according to a cut-off of 4 µM for IC50 and -50% for Amax)
JVM-3, TP53 WT
  Amax: -65.00%
  sensitivity call: sensitive (Sensitivity call for each compound was applied according to a cut-off of 4 µM for IC50 and -50% for Amax)
K029AX, TP53 WT
  Amax: -68.89%
  sensitivity call: sensitive (Sensitivity call for each compound was applied according to a cut-off of 4 µM for IC50 and -50% for Amax)
KARPAS-299, TP53 MUT
  Amax: -3.42%
  sensitivity call: insensitive (Sensitivity call for each compound was applied according to a cut-off of 4 µM for IC50 and -50% for Amax)
KATO III, TP53 MUT
  Amax: -5.58%
  sensitivity call: insensitive (Sensitivity call for each compound was applied according to a cut-off of 4 µM for IC50 and -50% for Amax)
KCL-22, TP53 MUT
  Amax: -25.90%
  sensitivity call: insensitive (Sensitivity call for each compound was applied according to a cut-off of 4 µM for IC50 and -50% for Amax)
KMBC-2, TP53 MUT
  Amax: -69.03%
  sensitivity call: sensitive (Sensitivity call for each compound was applied according to a cut-off of 4 µM for IC50 and -50% for Amax)
KMS-11, TP53 WT
  Amax: -2.60%
  sensitivity call: insensitive (Sensitivity call for each compound was applied according to a cut-off of 4 µM for IC50 and -50% for Amax)
KMS-26, TP53 MUT
  Amax: 2.18%
  sensitivity call: insensitive (Sensitivity call for each compound was applied according to a cut-off of 4 µM for IC50 and -50% for Amax)
KNS-62, TP53 MUT
  Amax: -16.08%
  sensitivity call: insensitive (Sensitivity call for each compound was applied according to a cut-off of 4 µM for IC50 and -50% for Amax)
KO52, TP53 MUT
  Amax: -34.10%
  sensitivity call: insensitive (Sensitivity call for each compound was applied according to a cut-off of 4 µM for IC50 and -50% for Amax)
KP4, TP53 WT
  Amax: 0.41%
  sensitivity call: insensitive (Sensitivity call for each compound was applied according to a cut-off of 4 µM for IC50 and -50% for Amax)
KP-2, TP53 MUT
  Amax: -23.35%
  sensitivity call: insensitive (Sensitivity call for each compound was applied according to a cut-off of 4 µM for IC50 and -50% for Amax)
KP-3, TP53 MUT
  Amax: -3.05%
  sensitivity call: insensitive (Sensitivity call for each compound was applied according to a cut-off of 4 µM for IC50 and -50% for Amax)
KS-1, TP53 WT
  Amax: -64.80%
  sensitivity call: sensitive (Sensitivity call for each compound was applied according to a cut-off of 4 µM for IC50 and -50% for Amax)
KU-19-19, TP53 WT
  Amax: -62.34%
  sensitivity call: insensitive (Sensitivity call for each compound was applied according to a cut-off of 4 µM for IC50 and -50% for Amax)
KYM-1, TP53 WT
  Amax: -80.17%
  sensitivity call: sensitive (Sensitivity call for each compound was applied according to a cut-off of 4 µM for IC50 and -50% for Amax)
